# Data from PubChem BioAssay AID488969 (Vanderbilt High Throughput Screening Facility, 2010).
# The full ranking holds about 110,000 compounds; the median of “z-score” is about -0.1, and the highest 2% start at about 2. Some of the results follow. Calls of active or inactive are those of the source.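 Rule for the calls: active = z-score in the third read window above 3 or below -3; inactive = the rest.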
# Biological target: Metabotropic glutamate receptor 8 (Rattus norvegicus) (UniProt P70579)
# Assay: rat mGluR8 modulators via GIRK flux, primary screen, cell-based, thallium flux, HTS (AID 488969)
# Conditions: HEK293 rat mGluR8, GIRK (G protein-gated inwardly rectifying potassium channel) thallium flux, FluoZin2; at 10 µM; stronger effect = higher value; submaximal glutamate (EC20) added with thallium
# Chain of UniProt P70579 (P70579 whole entry, looked up): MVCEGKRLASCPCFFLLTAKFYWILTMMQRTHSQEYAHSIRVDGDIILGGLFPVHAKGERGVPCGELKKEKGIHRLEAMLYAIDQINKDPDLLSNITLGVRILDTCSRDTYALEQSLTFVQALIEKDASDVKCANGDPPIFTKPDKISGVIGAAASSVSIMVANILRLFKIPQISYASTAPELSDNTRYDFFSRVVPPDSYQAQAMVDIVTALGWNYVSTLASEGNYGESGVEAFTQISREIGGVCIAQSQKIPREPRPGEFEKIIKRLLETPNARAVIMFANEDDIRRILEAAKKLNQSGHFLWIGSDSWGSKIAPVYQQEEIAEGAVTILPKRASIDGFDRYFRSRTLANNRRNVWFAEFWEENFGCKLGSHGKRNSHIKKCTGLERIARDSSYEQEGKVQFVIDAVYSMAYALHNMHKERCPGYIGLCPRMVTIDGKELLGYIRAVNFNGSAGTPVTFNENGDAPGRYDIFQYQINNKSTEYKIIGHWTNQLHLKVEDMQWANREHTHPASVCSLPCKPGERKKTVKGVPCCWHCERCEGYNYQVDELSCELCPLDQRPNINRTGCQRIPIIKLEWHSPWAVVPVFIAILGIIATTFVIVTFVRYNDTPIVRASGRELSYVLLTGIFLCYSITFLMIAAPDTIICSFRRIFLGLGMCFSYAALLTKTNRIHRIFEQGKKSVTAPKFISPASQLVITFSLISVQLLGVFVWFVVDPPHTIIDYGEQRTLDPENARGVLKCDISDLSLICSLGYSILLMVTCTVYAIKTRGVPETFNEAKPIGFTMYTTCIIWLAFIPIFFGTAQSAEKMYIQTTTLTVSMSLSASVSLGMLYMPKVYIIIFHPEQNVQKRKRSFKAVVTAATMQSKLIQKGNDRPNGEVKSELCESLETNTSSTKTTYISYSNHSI
row,Compound,z-score
1,CCOC(=O)C1CCN(Cc2cn[nH]c2-c2ccccc2)CC1,-0.303
2,COc1ccccc1NC(=S)NNC(=O)c1c(Cl)c(C)nn1C,-0.00139
3,CC1(C)Cc2c(C#N)c(SCC(=O)c3ccccc3)nc(N3CCOCC3)c2CS1,0.105
4,Cc1snc(S(=O)(=O)Cc2ccccc2Cl)c1C#N,-0.159
5,CN(C)CCN(C(=O)/C=C/c1cccs1)c1nc2c(F)cc(F)cc2s1,-0.00668
6,CCOc1ccc(NC(=O)CCNS(=O)(=O)c2ccc(Br)s2)cc1,-0.0821
7,CCS(=O)(=O)c1ccc(C(=O)Nc2ccccc2)c(Cl)c1Cl,-0.115
8,Cc1ccc2[nH]c(=O)c(CN(CC3CCCO3)S(=O)(=O)c3cccc4nsnc34)cc2c1 (configuration not stated),0.8
9,CCOc1cc(C=O)ccc1OCCSc1ccc(Cl)cc1,-0.108
10,O=C1CN(C(=O)c2cc(Br)c(Br)s2)c2ccccc2N1,-0.435
11,Cc1cc(N2CCN(c3ccccc3Cl)CC2)n2cc(-c3ccccc3)nc2n1,0.105
12,COc1ccc(S(=O)(=O)n2oc(=O)cc2-c2ccccc2)cc1OC,-0.0891
13,Cc1cccc(C)c1NC(=O)Cn1nnc(-c2ccc(N3CCOCC3)cc2)n1,-0.234
14,O=C(Cn1c(-c2cscn2)nc2ccccc21)Nc1ccc2ccccc2c1,-0.0133
15,CS(=O)(=O)NCCSCc1ccccc1,-0.226
16,CCn1c(SCc2nc3ccccc3s2)nnc1-c1ccccc1,-0.212
17,CCSc1nnc(NC(=O)C2CC=CCC2C(=O)O)s1 (configuration not stated),1.27
18,CCCc1cc2c(cc1NC(=O)c1ccc(Br)cc1)OCO2,-0.081
19,COc1ccc(Cn2c(C3CC3)nc3ccc(NC(C)=O)cc3c2=O)cc1,0.228
20,CCOc1nc2ccccc2nc1NS(=O)(=O)c1ccccc1,-0.249
21,N#Cc1c(NC(=S)NC(=O)c2ccccc2)sc2c1CCCC2,0.0146
22,CC(=O)c1c(C)n(CCO)c2ccc(O)cc12,0.363
23,O=C1CC(C(=O)Nc2ccc(F)c(Cl)c2)N=C(N2CCCCC2)N1 (configuration not stated),0.0616
24,CCOc1cc(CNc2ccc(N(C)C)cc2)cc(Br)c1OCC(=O)NC(C)(C)C,0.193

row,Compound,z-score
1,O=C(COc1cc(=O)n2c(n1)SCCC2)c1ccccc1,-0.121
2,CCCS(=O)(=O)N1CCC(C(=O)NC2CCCCC2C)CC1 (configuration not stated),0.109
3,CCOC(=O)C1=NN(C(C)=O)C2(CC(=O)N(c3cccc(C)c3)C2=O)C1 (configuration not stated),-0.0266
4,Cc1cccc(NC(=O)COC(=O)c2ccc3c(=O)n4c(nc3c2)CCC4)c1,2.19
5,CCOC(=O)c1ccc(NC(=O)C2CCN(C(=O)c3ccc(OC)c(OC)c3)CC2)cc1,-0.279
6,CC1Cc2ccccc2N1C(=O)c1cc2c(=O)n3ccccc3nc2n1C (configuration not stated),-0.425
7,COCCNC(=O)C1CC(c2ccccc2[N+](=O)[O-])=NO1 (configuration not stated),-0.144
8,Cc1ccc(OC(C)c2nnc(N)s2)cc1Cl (configuration not stated),-0.0873
9,Cc1cccc(N(CC(=O)N/N=C/c2cc([N+](=O)[O-])ccc2Cl)S(C)(=O)=O)c1C,-0.628
10,CCCOc1ccc(/C=C/C(=O)Nc2ccc([N+](=O)[O-])cc2C)cc1OC,-0.0468
11,O=C(Cc1sc(-c2ccccc2)nc1-c1ccccc1)Nc1ccccc1,0.412
12,CC1=C/C(=C\c2ccc3c(c2)OCO3)C(=O)S1,0.528
13,Cc1cccc(Nc2nc(-c3ccccc3)c(C(=O)Nc3cccnc3)s2)c1,0.439
14,S=C(Nc1ccccc1)N1CCn2cccc2C1c1cccnc1 (configuration not stated),0.474
15,COc1ccc(-n2nnnc2-c2cccnc2)cc1,-0.216
16,C=CCn1c(SC)nnc1-c1cccc([N+](=O)[O-])c1,-0.263
17,CSc1nsc(/C=C/Nc2ccc(Cl)cc2)c1C#N,0.0184
18,CCOC(=O)c1sc(NC(=O)CSc2n[nH]c(CC(C)C)n2)nc1C,-0.302
19,Cc1cccc(N2CCN(C(=O)Cn3cccc3)CC2)c1C,-0.104
20,Cc1ccc(N2C(=O)C3C4C=CC(CNC(=S)Nc5ccc(Cl)cc5)(O4)C3C2=O)cc1 (configuration not stated),-0.00399
21,O=C(c1ccc(Br)o1)N1CCN(c2ncccn2)CC1,-0.2
22,CC(=O)N1CCN(c2ccc(Oc3ncnc4sccc34)cc2)CC1,0.263
23,COC(=O)c1ccccc1NC(=O)c1nc2nc(C)cc(C)n2n1,0.69
24,CCNc1c([N+](=O)[O-])ncn1C,-0.216

row,Compound,z-score
1,CN1CCC2(CC1)N=C(c1ccc(F)cc1)C(=S)N2C(=O)c1ccccc1,-0.317
2,COc1cccc(NC(=O)COC(=O)c2c3c(nc4ccccc24)CCC(C)C3)c1 (configuration not stated),-0.604
3,O=C(Nc1nc(-c2cc(Cl)sc2Cl)cs1)c1ccccc1,-0.751
4,COc1ccc(NC(=O)c2cn(CCC#N)nc2-c2cccs2)cc1,-0.0605
5,Cc1nnc(NC(=O)CSc2nccn2C)s1,-0.0451
6,CCC1(C)Cc2c(sc3nc(SC)n(Cc4ccccc4)c(=O)c23)CO1 (configuration not stated),-0.216
7,C=CCN1C(=O)C2(NNc3ccccc3O2)c2ccccc21 (configuration not stated),-1
8,CCOc1cc(C(N)=O)cc(Br)c1OCC,0.226
9,O=c1c(O)c(-c2cccs2)oc2ccc(Cl)cc12,active: 14.1
10,C=CCn1c(SCC(=O)Nc2ccc(N(C)C)cc2)nnc1-c1cccc(C)c1,-0.17
11,Cc1cc(C(=O)OC(C(=O)Nc2ccc(C)c(Cl)c2)c2ccccc2)c(C)o1 (configuration not stated),-0.415
12,COc1ccc(-c2nc3c(n2O)CCC/C3=N\O)cc1,0.878
13,O=C(NCc1ccccc1)C(c1ccc(F)cc1)N(Cc1ccco1)C(=O)c1ccccn1 (configuration not stated),0.304
14,CCCS(=O)(=O)Nc1c(OC)ccc2c1c(C(=O)OCC)c(C)n2C,-0.18
15,Cc1ccc(-c2nnc(SCC(=O)Nc3ccc(N4CCOCC4)cc3)o2)cc1,-0.301
16,O=c1[nH]c2cc3c(cc2cc1CN(CCc1ccccc1)Cc1nnnn1C1CCCC1)OCCO3,-0.261
17,O=C(Oc1ccc([N+](=O)[O-])cc1)c1cccnc1,-0.0965
18,CCCNC(=O)c1ccccc1NC(=O)COc1ccc(OC)cc1,-0.246
19,Clc1ccc(-c2cnc3n2CCC3)cc1,0.0115
20,CCCN(C(=O)Cn1ncc2c(=O)oc3ccccc3c21)c1cccc(C)c1,-1.15
21,COc1cc(C=O)ccc1OCCOCCOc1ccccc1Cl,-0.5
22,O=C(COc1ccc(Cl)cc1Cl)Nc1ccc(S(=O)(=O)NC2=NCCCCC2)cc1,-0.171
23,CCS(=O)(=O)Nc1ccc(-c2ccc(NS(=O)(=O)CC)c(OC)c2)cc1OC,0.129
24,COc1ccccc1NC(=O)CSc1nnc(C2CCCCC2)o1,0.261
